Positions count from the first letter of the chain named. The list shows a part of the results.
T1: RBFOX1 RRM RbFoxmut (Fox-RRM*) (Homo sapiens, UniProt Q9NWB1 109-208, R118D;E147R;N151S;E152T)
T1 sequence: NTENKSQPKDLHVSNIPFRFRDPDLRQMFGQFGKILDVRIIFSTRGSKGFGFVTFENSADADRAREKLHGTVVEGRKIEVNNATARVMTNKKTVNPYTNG

B1: GAUUAUA (DNA:RNA)
RNA: GGGAGACCGGAAUUCAGAUUGUCCGAUUAUAUUAAAUCCCGUCGUAGCCACCA
DNA 1: CAATCTGAATTCCGGTCTCCC
DNA 2: TGGTGGCTACGACGGGATT
B2: UCAGUUG (DNA:RNA)
RNA: B1 RNA with G25U, A26C, U27A, U28G, A29U, A31G
DNA 1: CAATCTGAATTCCGGTCTCCC
DNA 2: TGGTGGCTACGACGGGATT
B3: CCUUUUA (DNA:RNA)
RNA: B1 RNA with G25C, A26C, A29U
DNA 1: CAATCTGAATTCCGGTCTCCC
DNA 2: TGGTGGCTACGACGGGATT
B4: AGCCCAG (DNA:RNA)
RNA: GGGAGACCGGAAUUCAGAUUGUCCAGCCCAGUUAAAUCCCGUCGUAGCCACCA
DNA 1: CAATCTGAATTCCGGTCTCCC
DNA 2: TGGTGGCTACGACGGGATT
B5: UGGGAAU (DNA:RNA)
RNA: B4 RNA with A25U, C27G, C28G, C29A, G31U
DNA 1: CAATCTGAATTCCGGTCTCCC
DNA 2: TGGTGGCTACGACGGGATT
B6: ACCAAGU (DNA:RNA)
RNA: B4 RNA with G26C, C28A, C29A, A30G, G31U
DNA 1: CAATCTGAATTCCGGTCTCCC
DNA 2: TGGTGGCTACGACGGGATT
B7: AUAUCCA (DNA:RNA)
RNA: B4 RNA with G26U, C27A, C28U, A30C, G31A
DNA 1: CAATCTGAATTCCGGTCTCCC
DNA 2: TGGTGGCTACGACGGGATT
B8: ACACACA (DNA:RNA)
RNA: B4 RNA with G26C, C27A, C29A, A30C, G31A
DNA 1: CAATCTGAATTCCGGTCTCCC
DNA 2: TGGTGGCTACGACGGGATT
B9: GGUUUAA (DNA:RNA)
RNA: B1 RNA with A26G, A29U, U30A
DNA 1: CAATCTGAATTCCGGTCTCCC
DNA 2: TGGTGGCTACGACGGGATT
B10: UCAACCA (DNA:RNA)
RNA: B4 RNA with A25U, G26C, C27A, C28A, A30C, G31A
DNA 1: CAATCTGAATTCCGGTCTCCC
DNA 2: TGGTGGCTACGACGGGATT
B11: GAUGUCG (DNA:RNA)
RNA: B1 RNA with U28G, A29U, U30C, A31G
DNA 1: CAATCTGAATTCCGGTCTCCC
DNA 2: TGGTGGCTACGACGGGATT
B12: AUUUUUC (DNA:RNA)
RNA: B1 RNA with G25A, A26U, A29U, A31C
DNA 1: CAATCTGAATTCCGGTCTCCC
DNA 2: TGGTGGCTACGACGGGATT
B13: CGUAGAG (DNA:RNA)
RNA: B4 RNA with A25C, C27U, C28A, C29G
DNA 1: CAATCTGAATTCCGGTCTCCC
DNA 2: TGGTGGCTACGACGGGATT
B14: GGAACCC (DNA:RNA)
RNA: B4 RNA with A25G, C27A, C28A, A30C, G31C
DNA 1: CAATCTGAATTCCGGTCTCCC
DNA 2: TGGTGGCTACGACGGGATT
B15: CUAAAUC (DNA:RNA)
RNA: B1 RNA with G25C, A26U, U27A, U28A, A31C
DNA 1: CAATCTGAATTCCGGTCTCCC
DNA 2: TGGTGGCTACGACGGGATT
B16: UUAGAAA (DNA:RNA)
RNA: B1 RNA with G25U, A26U, U27A, U28G, U30A
DNA 1: CAATCTGAATTCCGGTCTCCC
DNA 2: TGGTGGCTACGACGGGATT
B17: GACCUCC (DNA:RNA)
RNA: B4 RNA with A25G, G26A, C29U, A30C, G31C
DNA 1: CAATCTGAATTCCGGTCTCCC
DNA 2: TGGTGGCTACGACGGGATT
B18: GAGAGAA (DNA:RNA)
RNA: B1 RNA with U27G, U28A, A29G, U30A
DNA 1: CAATCTGAATTCCGGTCTCCC
DNA 2: TGGTGGCTACGACGGGATT
B19: AGCCUCU (DNA:RNA)
RNA: B4 RNA with C29U, A30C, G31U
DNA 1: CAATCTGAATTCCGGTCTCCC
DNA 2: TGGTGGCTACGACGGGATT
B20: GGGUCGA (DNA:RNA)
RNA: B1 RNA with A26G, U27G, A29C, U30G
DNA 1: CAATCTGAATTCCGGTCTCCC
DNA 2: TGGTGGCTACGACGGGATT
B21: CCACUCU (DNA:RNA)
RNA: B4 RNA with A25C, G26C, C27A, C29U, A30C, G31U
DNA 1: CAATCTGAATTCCGGTCTCCC
DNA 2: TGGTGGCTACGACGGGATT
B22: GGUGAGG (DNA:RNA)
RNA: B1 RNA with A26G, U28G, U30G, A31G
DNA 1: CAATCTGAATTCCGGTCTCCC
DNA 2: TGGTGGCTACGACGGGATT
B23: CCGUGGG (DNA:RNA)
RNA: B4 RNA with A25C, G26C, C27G, C28U, C29G, A30G
DNA 1: CAATCTGAATTCCGGTCTCCC
DNA 2: TGGTGGCTACGACGGGATT
B24: GGGGCGU (DNA:RNA)
RNA: B4 RNA with A25G, C27G, C28G, A30G, G31U
DNA 1: CAATCTGAATTCCGGTCTCCC
DNA 2: TGGTGGCTACGACGGGATT
B25: CCCAUGC (DNA:RNA)
RNA: B4 RNA with A25C, G26C, C28A, C29U, A30G, G31C
DNA 1: CAATCTGAATTCCGGTCTCCC
DNA 2: TGGTGGCTACGACGGGATT
B26: GGUGAUU (DNA:RNA)
RNA: B1 RNA with A26G, U28G, A31U
DNA 1: CAATCTGAATTCCGGTCTCCC
DNA 2: TGGTGGCTACGACGGGATT
B27: GUGACCA (DNA:RNA)
RNA: B1 RNA with A26U, U27G, U28A, A29C, U30C
DNA 1: CAATCTGAATTCCGGTCTCCC
DNA 2: TGGTGGCTACGACGGGATT
B28: ACGAGUC (DNA:RNA)
RNA: B4 RNA with G26C, C27G, C28A, C29G, A30U, G31C
DNA 1: CAATCTGAATTCCGGTCTCCC
DNA 2: TGGTGGCTACGACGGGATT
B29: UCUUCCU (DNA:RNA)
RNA: B1 RNA with G25U, A26C, A29C, U30C, A31U
DNA 1: CAATCTGAATTCCGGTCTCCC
DNA 2: TGGTGGCTACGACGGGATT
B30: GGUUAAC (DNA:RNA)
RNA: B1 RNA with A26G, U30A, A31C
DNA 1: CAATCTGAATTCCGGTCTCCC
DNA 2: TGGTGGCTACGACGGGATT
B31: ACCCGAC (DNA:RNA)
RNA: B4 RNA with G26C, C29G, G31C
DNA 1: CAATCTGAATTCCGGTCTCCC
DNA 2: TGGTGGCTACGACGGGATT

Each binder was assayed against T1, RBFOX1 RRM RbFoxmut (Fox-RRM*) (assay: EMSA; HiTS-Eq, 1 nM pool, 10 min; buffer printed only for the single-RNA assays: 10 mM Tris pH 7.5, 150 mM NaCl, 3.4 mM EDTA, 0.001% NP-40, 30 C). Conditions: tags: His6 N-terminal (pET28a); label: 5' 32P.
Outline: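 Purified RbFox RRM, wild type or mutant, was incubated for 10 min in 50 µL with 1 nM of a 5′-radiolabelled RNA pool carrying 7 randomized nucleotides, whose flanks were annealed to DNA oligonucleotides, over a series of increasing protein concentrations. Unbound RNA was resolved on 8% native PAGE, cut out, reverse-transcribed, barcoded by PCR and sequenced on an Illumina HiSeq 2500. Relative association constants were derived from changes in read counts for each RNA species versus the control reaction and normalised to the cognate motif.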

Q: For B1, which binding signal is on record?
A: Its binding signal is 0.0871 KA relative to UGCAUGU.

Q: B2 was tested. Which binding signal did it give?
A: The binding signal was 0.119 KA relative to UGCAUGU.

Q: Which binding signal does the source give for B3 here?
A: Its binding signal is 0.0871 KA relative to UGCAUGU.

Q: With B4 as the binder, how does the binding signal read?
A: The binding signal was 0.123 KA relative to UGCAUGU.

Q: With B5 as the binder, how does the binding signal read?
A: Its binding signal is 0.138 KA relative to UGCAUGU.

Q: With B6 as the binder, how does the binding signal read?
A: The binding signal was 0.0821 KA relative to UGCAUGU.

Q: For B7, which binding signal is on record?
A: The binding signal was 0.115 KA relative to UGCAUGU.

Q: B8 was tested. Which binding signal did it give?
A: Its binding signal is 0.101 KA relative to UGCAUGU.

Q: For B9, which binding signal is on record?
A: The binding signal was 0.0823 KA relative to UGCAUGU.

Q: B10 was tested. Which binding signal did it give?
A: Its binding signal is 0.0628 KA relative to UGCAUGU.

Q: Which binding signal does the source give for B11 here?
A: Its binding signal is 0.145 KA relative to UGCAUGU.

Q: How did the binding signal turn out when B12 was run?
A: Its binding signal is 0.0727 KA relative to UGCAUGU.

Q: How did the binding signal turn out when B13 was run?
A: Its binding signal is 0.156 KA relative to UGCAUGU.

Q: Which binding signal does the source give for B14 here?
A: The binding signal was 0.103 KA relative to UGCAUGU.

Q: Which binding signal does the source give for B15 here?
A: Its binding signal is 0.0354 KA relative to UGCAUGU.

Q: B16 was tested. Which binding signal did it give?
A: Its binding signal is 0.0704 KA relative to UGCAUGU.

Q: Which binding signal does the source give for B17 here?
A: The binding signal was 0.0427 KA relative to UGCAUGU.

Q: For B18, which binding signal is on record?
A: The binding signal was 0.0849 KA relative to UGCAUGU.

Q: With B19 as the binder, how does the binding signal read?
A: The binding signal was 0.0693 KA relative to UGCAUGU.

Q: B20 was tested. Which binding signal did it give?
A: Its binding signal is 0.21 KA relative to UGCAUGU.

Q: For B21, which binding signal is on record?
A: Its binding signal is 0.0917 KA relative to UGCAUGU.

Q: Which binding signal does the source give for B22 here?
A: The binding signal was 0.0722 KA relative to UGCAUGU.

Q: With B23 as the binder, how does the binding signal read?
A: Its binding signal is 0.084 KA relative to UGCAUGU.

Q: Which binding signal does the source give for B24 here?
A: Its binding signal is 0.167 KA relative to UGCAUGU.

Q: B25 was tested. Which binding signal did it give?
A: Its binding signal is 0.0771 KA relative to UGCAUGU.

Q: Which binding signal does the source give for B26 here?
A: The binding signal was 0.0776 KA relative to UGCAUGU.

Q: B27 was tested. Which binding signal did it give?
A: The binding signal was 0.0788 KA relative to UGCAUGU.

Q: How did the binding signal turn out when B28 was run?
A: Its binding signal is 0.117 KA relative to UGCAUGU.

Q: For B29, which binding signal is on record?
A: The binding signal was 0.0569 KA relative to UGCAUGU.

Q: B30 was tested. Which binding signal did it give?
A: The binding signal was 0.0607 KA relative to UGCAUGU.

Q: With B31 as the binder, how does the binding signal read?
A: The binding signal was 0.063 KA relative to UGCAUGU.

Reference: article PMC9911399, “Two distinct binding modes provide the RNA-binding protein RbFox with extraordinary sequence specificity”
